For test [1], the target named is T1, cynomolgus monkey CD40L on cells (cynomolgus monkey, UniProt G7Q1T4 1-261).
T1 construct: whole, on cells; also called Cyno CD40L
T1 sequence: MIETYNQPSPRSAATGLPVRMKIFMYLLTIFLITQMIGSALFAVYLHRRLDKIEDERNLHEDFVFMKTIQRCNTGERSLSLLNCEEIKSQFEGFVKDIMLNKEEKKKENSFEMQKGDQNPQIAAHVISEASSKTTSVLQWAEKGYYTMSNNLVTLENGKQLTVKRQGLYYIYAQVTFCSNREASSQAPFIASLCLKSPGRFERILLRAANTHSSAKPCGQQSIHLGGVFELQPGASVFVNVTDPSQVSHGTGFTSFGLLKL
The test is described as follows: in vivo receptor occupancy on monkey PBMC after 11 mg/kg IV; PK/PD Emax model.

Test [2] addresses T2, biotinylated IZ-hCD40L (biot-IZ-hCD40L) (human, UniProt P29965 113-261, biotinylated).
T2 construct: biotinylated version of IZ-hCD40L captured on streptavidin chip; also called biotinylated CD40L; not shown: N-terminal isoleucine zipper motif
T2 sequence: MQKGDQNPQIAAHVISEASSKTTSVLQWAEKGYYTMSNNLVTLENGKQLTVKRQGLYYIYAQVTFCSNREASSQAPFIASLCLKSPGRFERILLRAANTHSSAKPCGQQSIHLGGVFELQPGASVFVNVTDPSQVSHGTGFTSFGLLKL
The test can be described thus: SPR (Biacore), 25 C, 1:1 Langmuir; value influenced by avidity. For orientation: SPR reads the build-up and loss of mass on a sensor chip optically.

The target in test [3] is T3, human isoleucine zipper-CD40L (IZ-hCD40L) (human, UniProt P29965 113-261).
T3 sequence: T2 sequence
The test is described as follows: cell-based or functional assay.

For test [4], the target named is T4, human CD40L, membrane-bound on cells (human, UniProt P29965 1-261).
T4 sequence: T1 sequence with P8T, V19I, R20S, I30V, K105T
The test can be described thus: cell-based or functional assay.

Residue numbers refer to the chain shown, from its start.

A word on the EC50: it is the concentration that produces a half-maximal response. What is called koff is the rate constant with which the complex falls apart. What is called kon is the second-order rate constant of association.

B1: BMS-986004 (Fc fusion)
chain: EVQLLESGGGLVQPGGSLRLSCAASGFTFNWELMGWARQAPGKGLEWVSGIEGPGDVTYYADSVKGRFTISRDNSKNTLYLQMNSLRAEDTAVYYCVKVGKDAKSDYRGQGTLVTVSSAST[not shown - human IgG1 Fc with changes]
On to B1, for which the half-maximal effective concentration (EC50) in test [1] was 3.4 nM. In test [2], the Kd turned out to be 0.11 nM, the off-rate constant (koff) is 0.00026 s⁻¹ and the kon worked out at 2.3e+06 M⁻¹ s⁻¹.

B2: 2h719-202-CT Long Fc (Fc fusion)
chain: EVQLLESGGGLVQPGGSLRLSCAASGFTFKKYEMMWVRQAPGKGLEWVSSISSDGSFTYYADSVKGRFTISRDNSKNTLYLQMNSLRAEDTAVYYCAEPFTEFDYWGHGTLVTVSSAST[not shown - human IgG1 Fc with changes]
Take B2: the “hIZCD40L-driven Human B Cell Proliferation EC50” value in test [3] was 3 nM. In test [4], the “CHO-hCD40L-driven DC Activation IL-12 EC50” value turned out to be 3.1 nM, the “CHO-hCD40L-driven Human B Cell Proliferation EC50” value is 2.5 nM, the “T-B cell MLR EC50” value amounted to 1.7 nM and the “T-B cell MLR IL-6 EC50” value stood at 1.3 nM.

These data come from patent publication US20160075790A1 (Bristol-Myers Squibb, published 2016).
